In publication PMC9911399, “Two distinct binding modes provide the RNA-binding protein RbFox with extraordinary sequence specificity”:
Residue numbers refer to the chain shown, from its start. The list shows a part of the results.

T1: RBFOX1 RRM RbFoxmut (Fox-RRM*) (Homo sapiens, UniProt Q9NWB1 109-208, R118D;E147R;N151S;E152T)
T1 sequence: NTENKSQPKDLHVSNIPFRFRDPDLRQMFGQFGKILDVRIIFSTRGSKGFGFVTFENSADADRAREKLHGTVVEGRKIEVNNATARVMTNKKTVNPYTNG

B1: UGCGUAA (DNA:RNA)
RNA: GGGAGACCGGAAUUCAGAUUGUCCUGCGUAAUUAAAUCCCGUCGUAGCCACCA
DNA 1: CAATCTGAATTCCGGTCTCCC
DNA 2: TGGTGGCTACGACGGGATT
B2: UACAUCC (DNA:RNA)
RNA: B1 RNA with G26A, G28A, A30C, A31C
DNA 1: CAATCTGAATTCCGGTCTCCC
DNA 2: TGGTGGCTACGACGGGATT
B3: UCUUUUA (DNA:RNA)
RNA: B1 RNA with G26C, C27U, G28U, A30U
DNA 1: CAATCTGAATTCCGGTCTCCC
DNA 2: TGGTGGCTACGACGGGATT
B4: CACUUAC (DNA:RNA)
RNA: B1 RNA with U25C, G26A, G28U, A31C
DNA 1: CAATCTGAATTCCGGTCTCCC
DNA 2: TGGTGGCTACGACGGGATT
B5: UGCUCUA (DNA:RNA)
RNA: B1 RNA with G28U, U29C, A30U
DNA 1: CAATCTGAATTCCGGTCTCCC
DNA 2: TGGTGGCTACGACGGGATT
B6: GCUUUGA (DNA:RNA)
RNA: B1 RNA with U25G, G26C, C27U, G28U, A30G
DNA 1: CAATCTGAATTCCGGTCTCCC
DNA 2: TGGTGGCTACGACGGGATT
B7: UCUUAGA (DNA:RNA)
RNA: B1 RNA with G26C, C27U, G28U, U29A, A30G
DNA 1: CAATCTGAATTCCGGTCTCCC
DNA 2: TGGTGGCTACGACGGGATT
B8: UAGUAAG (DNA:RNA)
RNA: B1 RNA with G26A, C27G, G28U, U29A, A31G
DNA 1: CAATCTGAATTCCGGTCTCCC
DNA 2: TGGTGGCTACGACGGGATT
B9: UUUUUCG (DNA:RNA)
RNA: B1 RNA with G26U, C27U, G28U, A30C, A31G
DNA 1: CAATCTGAATTCCGGTCTCCC
DNA 2: TGGTGGCTACGACGGGATT
B10: CGUUUGU (DNA:RNA)
RNA: B1 RNA with U25C, C27U, G28U, A30G, A31U
DNA 1: CAATCTGAATTCCGGTCTCCC
DNA 2: TGGTGGCTACGACGGGATT
B11: CGUGAGA (DNA:RNA)
RNA: B1 RNA with U25C, C27U, U29A, A30G
DNA 1: CAATCTGAATTCCGGTCTCCC
DNA 2: TGGTGGCTACGACGGGATT
B12: CCUCCCA (DNA:RNA)
RNA: B1 RNA with U25C, G26C, C27U, G28C, U29C, A30C
DNA 1: CAATCTGAATTCCGGTCTCCC
DNA 2: TGGTGGCTACGACGGGATT
B13: CAUCCCA (DNA:RNA)
RNA: B1 RNA with U25C, G26A, C27U, G28C, U29C, A30C
DNA 1: CAATCTGAATTCCGGTCTCCC
DNA 2: TGGTGGCTACGACGGGATT
B14: UACGAUU (DNA:RNA)
RNA: B1 RNA with G26A, U29A, A30U, A31U
DNA 1: CAATCTGAATTCCGGTCTCCC
DNA 2: TGGTGGCTACGACGGGATT
B15: AAAGGAC (DNA:RNA)
RNA: B1 RNA with U25A, G26A, C27A, U29G, A31C
DNA 1: CAATCTGAATTCCGGTCTCCC
DNA 2: TGGTGGCTACGACGGGATT
B16: UUAAAUU (DNA:RNA)
RNA: B1 RNA with G26U, C27A, G28A, U29A, A30U, A31U
DNA 1: CAATCTGAATTCCGGTCTCCC
DNA 2: TGGTGGCTACGACGGGATT
B17: GAGGUUG (DNA:RNA)
RNA: B1 RNA with U25G, G26A, C27G, A30U, A31G
DNA 1: CAATCTGAATTCCGGTCTCCC
DNA 2: TGGTGGCTACGACGGGATT
B18: UAUUAAA (DNA:RNA)
RNA: B1 RNA with G26A, C27U, G28U, U29A
DNA 1: CAATCTGAATTCCGGTCTCCC
DNA 2: TGGTGGCTACGACGGGATT
B19: AAUACUG (DNA:RNA)
RNA: GGGAGACCGGAAUUCAGAUUGUCCAAUACUGUUAAAUCCCGUCGUAGCCACCA
DNA 1: CAATCTGAATTCCGGTCTCCC
DNA 2: TGGTGGCTACGACGGGATT
B20: CGGAUUA (DNA:RNA)
RNA: B1 RNA with U25C, C27G, G28A, A30U
DNA 1: CAATCTGAATTCCGGTCTCCC
DNA 2: TGGTGGCTACGACGGGATT
B21: GCGAGCC (DNA:RNA)
RNA: B19 RNA with A25G, A26C, U27G, C29G, U30C, G31C
DNA 1: CAATCTGAATTCCGGTCTCCC
DNA 2: TGGTGGCTACGACGGGATT
B22: ACUUACU (DNA:RNA)
RNA: B19 RNA with A26C, A28U, C29A, U30C, G31U
DNA 1: CAATCTGAATTCCGGTCTCCC
DNA 2: TGGTGGCTACGACGGGATT
B23: UAUACAG (DNA:RNA)
RNA: B19 RNA with A25U, U30A
DNA 1: CAATCTGAATTCCGGTCTCCC
DNA 2: TGGTGGCTACGACGGGATT
B24: CUCUGGG (DNA:RNA)
RNA: B19 RNA with A25C, A26U, U27C, A28U, C29G, U30G
DNA 1: CAATCTGAATTCCGGTCTCCC
DNA 2: TGGTGGCTACGACGGGATT
B25: AUGUAAA (DNA:RNA)
RNA: B1 RNA with U25A, G26U, C27G, G28U, U29A
DNA 1: CAATCTGAATTCCGGTCTCCC
DNA 2: TGGTGGCTACGACGGGATT
B26: ACGUAGA (DNA:RNA)
RNA: B19 RNA with A26C, U27G, A28U, C29A, U30G, G31A
DNA 1: CAATCTGAATTCCGGTCTCCC
DNA 2: TGGTGGCTACGACGGGATT
B27: GGGACUU (DNA:RNA)
RNA: B19 RNA with A25G, A26G, U27G, G31U
DNA 1: CAATCTGAATTCCGGTCTCCC
DNA 2: TGGTGGCTACGACGGGATT
B28: GAUUGCU (DNA:RNA)
RNA: B19 RNA with A25G, A28U, C29G, U30C, G31U
DNA 1: CAATCTGAATTCCGGTCTCCC
DNA 2: TGGTGGCTACGACGGGATT
B29: AACUCUG (DNA:RNA)
RNA: B19 RNA with U27C, A28U
DNA 1: CAATCTGAATTCCGGTCTCCC
DNA 2: TGGTGGCTACGACGGGATT
B30: CGGCCUU (DNA:RNA)
RNA: B19 RNA with A25C, A26G, U27G, A28C, G31U
DNA 1: CAATCTGAATTCCGGTCTCCC
DNA 2: TGGTGGCTACGACGGGATT
B31: UUAACGA (DNA:RNA)
RNA: B19 RNA with A25U, A26U, U27A, U30G, G31A
DNA 1: CAATCTGAATTCCGGTCTCCC
DNA 2: TGGTGGCTACGACGGGATT

biological target: T1, RBFOX1 RRM RbFoxmut (Fox-RRM*); test: EMSA; HiTS-Eq, 1 nM pool, 10 min; buffer printed only for the single-RNA assays: 10 mM Tris pH 7.5, 150 mM NaCl, 3.4 mM EDTA, 0.001% NP-40, 30 C; conditions: tags: His6 N-terminal (pET28a); label: 5' 32P
Summary of the method: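 Relative association constants, normalised to the cognate motif, were derived by comparing read counts of each RNA species with those of the control reaction. The RNA sequenced was the free fraction, separated by 8% native PAGE after a 10 min equilibration in 50 µL of 1 nM 5′-radiolabelled RNA (7 randomized nucleotides) with increasing concentrations of purified wild-type or mutant RbFox RRM.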

In order of falling binding signal:
1. B17  0.552 KA relative to UGCAUGU
2. B10  0.3 KA relative to UGCAUGU
3. B26  0.17 KA relative to UGCAUGU
4. B25  0.169 KA relative to UGCAUGU
5. B28  0.141 KA relative to UGCAUGU
6. B11  0.124 KA relative to UGCAUGU
7. B6  0.122 KA relative to UGCAUGU
8. B3  0.119 KA relative to UGCAUGU
9. B5  0.119 KA relative to UGCAUGU
10. B1  0.118 KA relative to UGCAUGU
11. B8  0.118 KA relative to UGCAUGU
12. B21  0.115 KA relative to UGCAUGU
13. B22  0.114 KA relative to UGCAUGU
14. B7  0.109 KA relative to UGCAUGU
15. B20  0.107 KA relative to UGCAUGU
16. B4  0.1 KA relative to UGCAUGU
17. B14  0.0913 KA relative to UGCAUGU
18. B9  0.0908 KA relative to UGCAUGU
19. B13  0.0876 KA relative to UGCAUGU
20. B24  0.0876 KA relative to UGCAUGU
21. B18  0.0847 KA relative to UGCAUGU
22. B19  0.0774 KA relative to UGCAUGU
23. B16  0.0763 KA relative to UGCAUGU
24. B2  0.0661 KA relative to UGCAUGU
25. B27  0.0648 KA relative to UGCAUGU
26. B12  0.0646 KA relative to UGCAUGU
27. B15  0.0621 KA relative to UGCAUGU
28. B23  0.0616 KA relative to UGCAUGU
29. B30  0.056 KA relative to UGCAUGU
30. B31  0.0397 KA relative to UGCAUGU
31. B29  0.0393 KA relative to UGCAUGU
